The source of these data is the supplement of paper PMC10502849.

In test [1] the test system is H9 teratoma-derived LAM model cells, TSC2-/-. The test can be described thus: percent SyTOX+ dead cells; higher = more cytotoxic. To be noted: 5 µM, treatment time 72 h, culture: 3D hyaluronic acid hydrogel.
Test [2] deals with H9 teratoma-derived LAM model cells, WT. The test can be described thus: percent SyTOX+ dead cells; higher = more cytotoxic. The note with it: 5 µM, treatment time 72 h, culture: 3D hyaluronic acid hydrogel, genotype: WT.
The subject of test [3] is H9 teratoma-derived LAM model cells, TSC2-/-. As to the kind of experiment: percent of cells invaded past median invasion distance of vehicle control; LAM is lymphangioleiomyomatosis; the cells come from teratomas of the human stem cell line H9; higher = more invasion; extreme values may be limits of the assay. The note with it: 5 µM, treatment time 72 h, culture: 3D hyaluronic acid hydrogel.
Test [4] concerns H9 teratoma-derived LAM model cells, WT. The description is as above. To be noted: 5 µM, treatment time 72 h, culture: 3D hyaluronic acid hydrogel, genotype: WT.

Structures can show the parent of a compound that is named as a salt. This is one part of the list. Repeats are few or missing, and single values can be far off. Peptide text beside a SMILES is read from it. * marks the point of attachment. Cbz = O=C(OCc1ccccc1)*
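For percent SyTOX+ dead cells in this document: cells seeded atop a hyaluronic acid gel crosslinked via MMP-cleavable peptides, containing vitronectin peptides and methylcellulose, imaged live by high-content microscopy with automated analysis, one technical replicate per compound.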
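For percent of cells invaded past median invasion distance of vehicle control in this document: live cells imaged by high content microscopy and scored with in-house automated image analysis, one technical replicate per compound in each genotype and rapamycin condition.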

As to `Cc1ccc(NC2=CC(=O)c3sc(C)nc3C2=O)cc1` [Ryuvidine], the “percent SyTOX+ dead cells” value is 31.6% in test [1] (rapamycin 0 nM), 36.6% in test [1] (rapamycin 20 nM), 45% in test [2] (rapamycin 0 nM) and 42.4% in test [2] (rapamycin 20 nM). Also, the percent in test [3] (rapamycin 0 nM) is 1.49%; in test [3] (rapamycin 20 nM) it was 9.68%; in test [4] (rapamycin 0 nM), 3.95%; in test [4] (rapamycin 20 nM) it was 9.3%.
`CN(C)CCOc1ccc(-c2nc(-c3ccncc3)c(-c3ccc4c(c3)CC/C4=N\O)[nH]2)cc1`: the “percent SyTOX+ dead cells” value in test [1] (rapamycin 0 nM) worked out at 9.85%; in test [1] (rapamycin 20 nM), 8.45%; in test [2] (rapamycin 0 nM) it was 19.4%; in test [2] (rapamycin 20 nM), 11.2%. The percent amounted to 37.6% in test [3] (rapamycin 0 nM), 20.1% in test [3] (rapamycin 20 nM), 14.7% in test [4] (rapamycin 0 nM) and 17.5% in test [4] (rapamycin 20 nM).
As to `Cc1ccc(C(=O)Cn2c3c(sc2=N)CCCC3)cc1` [Pifithrin-alpha], the “percent SyTOX+ dead cells” value was 13.5% in test [1] (rapamycin 0 nM), 3.66% in test [1] (rapamycin 20 nM), 12.7% in test [2] (rapamycin 0 nM) and 9.39% in test [2] (rapamycin 20 nM). The percent came to 92.4% in test [3] (rapamycin 0 nM), 47.6% in test [3] (rapamycin 20 nM), 51.4% in test [4] (rapamycin 0 nM) and 25.8% in test [4] (rapamycin 20 nM).
Regarding `Cc1ncc(-c2ccnc(Nc3ccc(S(C)(=O)=O)cc3)n2)n1C(C)C`, the “percent SyTOX+ dead cells” value in test [1] (rapamycin 0 nM) was 43.1%; in test [1] (rapamycin 20 nM), 32.2%; in test [2] (rapamycin 0 nM), 31.3%; in test [2] (rapamycin 20 nM) it was 36.3%. For the same compound, the percent in test [3] (rapamycin 0 nM) is 3.19%; in test [3] (rapamycin 20 nM), 12.4%; in test [4] (rapamycin 0 nM), 1.2%; in test [4] (rapamycin 20 nM) it was 1.27%.
For the compound `CC(C)C[C@@H](C=O)NC(=O)[C@H](CC(C)C)NC(=O)[C@H](CC(C)C)NC(=O)OCc1ccccc1` (Cbz-Leu-Leu-Leu-aldehyde), the “percent SyTOX+ dead cells” value was found to be 67.3% in test [1] (rapamycin 0 nM), 69.7% in test [1] (rapamycin 20 nM), 63.9% in test [2] (rapamycin 0 nM) and 53.6% in test [2] (rapamycin 20 nM). Besides, the percent is 2.44% in test [3] (rapamycin 0 nM), 2.53% in test [3] (rapamycin 20 nM), 14.2% in test [4] (rapamycin 0 nM) and 10.5% in test [4] (rapamycin 20 nM).
As for `COc1cccc2c1C(=O)c1c(O)c3c(c(O)c1C2=O)C[C@@](O)(C(C)=O)C[C@@H]3O[C@H]1C[C@H](NC(=O)C(F)(F)F)[C@H](O)[C@H](C)O1` [N-(Trifluoroacetyl)daunorubicin], the “percent SyTOX+ dead cells” value in test [1] (rapamycin 0 nM) turned out to be 68.5%; in test [1] (rapamycin 20 nM), 77.3%; in test [2] (rapamycin 0 nM), 76.3%; in test [2] (rapamycin 20 nM), 70.6%. The percent was found to be 19.4% in test [3] (rapamycin 0 nM), 23.3% in test [3] (rapamycin 20 nM), 52.2% in test [4] (rapamycin 0 nM) and 42.2% in test [4] (rapamycin 20 nM).
As to `O=C(O)CCNc1cc(N2CCc3ccccc3CC2)nc(-c2ccccn2)n1`, the “percent SyTOX+ dead cells” value in test [1] (rapamycin 0 nM) was 22.5%; in test [1] (rapamycin 20 nM), 13.4%; in test [2] (rapamycin 0 nM), 20.3%; in test [2] (rapamycin 20 nM) it was 22.3%. Further, the percent came to 21.6% in test [3] (rapamycin 0 nM), 10.9% in test [3] (rapamycin 20 nM), 28.4% in test [4] (rapamycin 0 nM) and 22.7% in test [4] (rapamycin 20 nM).
Take `Nc1ncnc2c1c(-c1ccc(Oc3ccccc3)cc1)cn2C1CCCC1`: the “percent SyTOX+ dead cells” value in test [1] (rapamycin 0 nM) was 49.3%; in test [1] (rapamycin 20 nM) it was 22.5%; in test [2] (rapamycin 0 nM) it was 61.9%; in test [2] (rapamycin 20 nM), 61.4%. In addition, the percent in test [3] (rapamycin 0 nM) was 4.11%; in test [3] (rapamycin 20 nM), 6.2%; in test [4] (rapamycin 0 nM) it was 0%; in test [4] (rapamycin 20 nM), 0%.
As for `COc1ccc(CCC(=O)Nc2nc3ccc(Cl)cc3s2)cc1OC`, the “percent SyTOX+ dead cells” value in test [1] (rapamycin 0 nM) was found to be 19.2%; in test [1] (rapamycin 20 nM), 19.7%; in test [2] (rapamycin 0 nM), 22.1%; in test [2] (rapamycin 20 nM), 19.6%. Moreover, the percent in test [3] (rapamycin 0 nM) was 57.2%; in test [3] (rapamycin 20 nM) it was 35.8%; in test [4] (rapamycin 0 nM) it was 27.9%; in test [4] (rapamycin 20 nM), 18.9%.
Take `COc1ccc(-c2ccc3c(N4CCOCC4)nc(N4C[C@@H](C)O[C@@H](C)C4)nc3n2)cc1CO`: the “percent SyTOX+ dead cells” value in test [1] (rapamycin 0 nM) turned out to be 12.1%; in test [1] (rapamycin 20 nM), 6.94%; in test [2] (rapamycin 0 nM) it was 21.3%; in test [2] (rapamycin 20 nM), 16.7%. Also, the percent in test [3] (rapamycin 0 nM) was found to be 19.9%; in test [3] (rapamycin 20 nM), 26.1%; in test [4] (rapamycin 0 nM), 13%; in test [4] (rapamycin 20 nM) it was 31%.
In the case of `O=C(Nc1ccc([N+](=O)[O-])cc1O)Nc1ccccc1Br`, the “percent SyTOX+ dead cells” value is 20.4% in test [1] (rapamycin 0 nM), 22.2% in test [1] (rapamycin 20 nM), 39.6% in test [2] (rapamycin 0 nM) and 2.04% in test [2] (rapamycin 20 nM). Besides, the percent is 49.7% in test [3] (rapamycin 0 nM), 37.2% in test [3] (rapamycin 20 nM), 1.04% in test [4] (rapamycin 0 nM) and 8.16% in test [4] (rapamycin 20 nM).
With `O=C(NCc1ccccc1)c1csc(Nc2ccncn2)n1` [Thiazovivin], the “percent SyTOX+ dead cells” value in test [1] (rapamycin 0 nM) is 47.4%; in test [1] (rapamycin 20 nM), 23.6%; in test [2] (rapamycin 0 nM), 30%; in test [2] (rapamycin 20 nM) it was 36.3%. Also, the percent in test [3] (rapamycin 0 nM) was 7.51%; in test [3] (rapamycin 20 nM) it was 0%; in test [4] (rapamycin 0 nM) it was 0%; in test [4] (rapamycin 20 nM), 1.61%.
As for `Cc1cc(Nc2cc(C)c(C#N)c(NC(C)CCCC(C)(C)O)n2)n[nH]1` (stereo not given) [TC-A 2317 hydrochloride], the “percent SyTOX+ dead cells” value in test [1] (rapamycin 0 nM) came out at 34.9%; in test [1] (rapamycin 20 nM) it was 44.9%; in test [2] (rapamycin 0 nM) it was 69.9%; in test [2] (rapamycin 20 nM) it was 54.9%. The percent came to 3.97% in test [3] (rapamycin 0 nM), 6.52% in test [3] (rapamycin 20 nM), 0.68% in test [4] (rapamycin 0 nM) and 2.23% in test [4] (rapamycin 20 nM).
Turning to `NC(=O)c1cccc2[nH]c(-c3ccc(C4CCCN4)cc3F)nc12` (stereo not given), the “percent SyTOX+ dead cells” value in test [1] (rapamycin 0 nM) was 12.8%; in test [1] (rapamycin 20 nM) it was 9.45%; in test [2] (rapamycin 0 nM), 16.6%; in test [2] (rapamycin 20 nM) it was 19.6%. In addition, the percent stood at 43.6% in test [3] (rapamycin 0 nM), 43.7% in test [3] (rapamycin 20 nM), 37.8% in test [4] (rapamycin 0 nM) and 33.9% in test [4] (rapamycin 20 nM).
On to `O=c1[nH]ccc2c(O)cccc12` [1,5-Isoquinolinediol, IQD], for which the “percent SyTOX+ dead cells” value in test [1] (rapamycin 0 nM) amounted to 19.1%; in test [1] (rapamycin 20 nM), 10.8%; in test [2] (rapamycin 0 nM) it was 9.76%; in test [2] (rapamycin 20 nM) it was 10.6%. Also, the percent worked out at 51.8% in test [3] (rapamycin 0 nM), 32.1% in test [3] (rapamycin 20 nM), 51.5% in test [4] (rapamycin 0 nM) and 33.9% in test [4] (rapamycin 20 nM).
